Assay results published in patent publication US11701434B2, “Tertiary amino lipidated cationic peptides for nucleic acid delivery” (Nutcracker Therapeutics, Inc., priority 2018, dated 2023).
At least one compound was matched to its structure with a doubt left.

Tests used:
[1] = Dynamic light scattering (DLS) of Fluc mRNA/peptoid formulations: particle size and polydispersity; format: physicochemical; conditions: 5:1 mass ratio peptoid:cargo; for Size (volume average particle size/diameter): Fluc mRNA/peptoid complex; for Size PDI (size polydispersity index): Fluc mRNA/peptoid formulation
Procedure: (§1) In standard formulations, the tertiary amino lipidated and/or PEGylated cationic peptide compound is dissolved in anhydrous ethanol at a concentration of 0.5 mg/mL (for in vitro experiments) or 5 mg/mL (for in vivo experiments). The resulting solutions are stable at room temperature, but should be stored at −20° C. The nucleic acid cargo is dissolved in DNAse or RNAse-free water at a final concentration of 0.2 mg/mL (for in vitro experiments) or 1 mg/mL (for in vivo experiments). These solutions should be stored at −20° C. or at −78° C. for longer time periods. To prepare nanoparticle formulations, the tertiary amino lipidated and/or PEGylated cationic peptide compound is mixed by pipetting with nucleic acid at a mass ratio between approximately 1:1 (peptide compound:cargo) and 20:1. Prior to formulation, tertiary amino lipidated and/or PEGylated cationic peptide compounds and cargo (such as nucleic acid) are diluted in ethanol and acidic buffer (PBS adjusted to pH 5.5 with 0.1 M HCl) respectively to a volume ratio of 1:3 and to target a final cargo concentration of approximately 0.05 mg/mL to 0.2 mg/mL. The exemplary amino lipidated cationic peptoids 1-36 described in Example 2 were combined with firefly luciferase (Flue) mRNA to form nanoparticle compositions to be evaluated for therapeutic and/or prophylactic purposes in vitro or in vivo. The formulations were prepared according to the protocol of Example 3 and mixed by simple pipetting. The mRNA/peptoid formulation at a 5:1 mass ratio of peptoid:cargo were evaluated by dynamic light scattering (DLS) in order to determine the volume average particle size/diameter (nm) of the mRNA/peptoid complex and the size polydispersity index (PDI) within the formulation. The percentage of mRNA encapsulation for each formulation of the exemplary compounds were determined by fluorescence of the Qubit RNA HS (Invitrogen) dye before and after lysis of particles by Triton X-100.

[2] = mRNA encapsulation by Qubit RNA HS dye fluorescence before and after Triton X-100 lysis; format: physicochemical; conditions: Fluc mRNA/peptoid formulation, 5:1 mass ratio peptoid:cargo
Procedure: as §1

| SMILES | Size (volume average particle size/diameter) [1] [nm] | Size PDI (size polydispersity index) [1] | % Encapsulation (percentage of mRNA encapsulation) [2] [%] |
| --- | --- | --- | --- |
| CCCCCCCCCCN(CC(N)=O)C(=O)CN(CCCCCCCCCC)C(=O)CN(CCCCCCCCCC)C(=O)CN(CCCCCCCCCC)C(=O)CN(CCc1ccccc1)C(=O)CN(CCc1ccccc1)C(=O)CN(CCN)C(=O)CN(CCc1ccccc1)C(=O)CN(CCc1ccccc1)C(=O)CN(CCN)C(=O)CN(CCc1ccccc1)C(=O)CN(CCc1ccccc1)C(=O)CNCCN [Compound 8] | 234 | 0.077 | 82.5 |
| CCCCCCCCCCN(CC(N)=O)C(=O)CN(CCCCCCCCCC)C(=O)CN(CCc1ccccc1)C(=O)CN(CCc1ccccc1)C(=O)CN(CCN)C(=O)CN(CCc1ccccc1)C(=O)CN(CCc1ccccc1)C(=O)CN(CCN)C(=O)CN(CCc1ccccc1)C(=O)CN(CCc1ccccc1)C(=O)CN(CCN)C(=O)CN(CCc1ccccc1)C(=O)CN(CCc1ccccc1)C(=O)CN(CCN)C(=O)CN(CCc1ccccc1)C(=O)CN(CCc1ccccc1)C(=O)CNCCN [Compound 12] | 224.4 | 0.211 | 86.5 |
| CCCCCCCCCCN(CC(N)=O)C(=O)CN(CCCCCCCCCC)C(=O)CN(CCCCCCCCCC)C(=O)CN(CCCCCCCCCC)C(=O)CN(CCCCCCCCCC)C(=O)CN(CCc1ccccc1)C(=O)CN(CCc1ccccc1)C(=O)CN(CCN)C(=O)CN(CCc1ccccc1)C(=O)CN(CCc1ccccc1)C(=O)CN(CCN)C(=O)CN(CCc1ccccc1)C(=O)CN(CCc1ccccc1)C(=O)CNCCN [Compound 19] | 276 | 0.158 | 70.9 |
| CCCCCCCCCCN(CC(N)=O)C(=O)CN(CCCCCCCCCC)C(=O)CN(CCCCCCCCCC)C(=O)CN(CCCCCCCCCC)C(=O)CN(CCCCCCCCCC)C(=O)CN(CCc1ccccc1)C(=O)CN(CCc1ccccc1)C(=O)CN(CCN)C(=O)CN(CCc1ccccc1)C(=O)CN(CCc1ccccc1)C(=O)CN(CCN)C(=O)CN(CCc1ccccc1)C(=O)CN(CCc1ccccc1)C(=O)CN(CCN)C(=O)CN(CCc1ccccc1)C(=O)CN(CCc1ccccc1)C(=O)CNCCN [Compound 21] | 386.5 | 0.174 | 65.4 |
| CCCCCCCCCCN(CC(=O)N(CC(=O)N(CCCCCCCCCC)CC(=O)N(CC(N)=O)CC(CC)CCCC)CC(CC)CCCC)C(=O)CN(CCc1ccccc1)C(=O)CN(CCc1ccccc1)C(=O)CN(CCN)C(=O)CN(CCc1ccccc1)C(=O)CN(CCc1ccccc1)C(=O)CN(CCN)C(=O)CN(CCc1ccccc1)C(=O)CN(CCc1ccccc1)C(=O)CNCCN (stereo not drawn) [Compound 24] | 161 | 0.135 | 87.0 |
| CCCCCCCCCCN(CC(N)=O)C(=O)CN(CCCCCCCCCC)C(=O)CN(CCCCCCCCCC)C(=O)CN(CCCCCCCCCC)C(=O)CN(CCc1ccccc1)C(=O)CN(CCc1ccccc1)C(=O)CN(CCCN)C(=O)CN(CCc1ccccc1)C(=O)CN(CCc1ccccc1)C(=O)CN(CCCN)C(=O)CN(CCc1ccccc1)C(=O)CN(CCc1ccccc1)C(=O)CN(CCCN)C(=O)CN(CCc1ccccc1)C(=O)CN(CCc1ccccc1)C(=O)CNCCCN [Compound 29] | 343.4 | 0.237 | 24.8 |
| CCCCCCCCCCN(CC(N)=O)C(=O)CN(CCCCCCCCCC)C(=O)CN(CCCCCCCCCC)C(=O)CN(CCCCCCCCCC)C(=O)CN(CCc1ccccc1)C(=O)CN(CCc1ccccc1)C(=O)CN(CC1CCCN1)C(=O)CN(CCc1ccccc1)C(=O)CN(CCc1ccccc1)C(=O)CN(CC1CCCN1)C(=O)CN(CCc1ccccc1)C(=O)CN(CCc1ccccc1)C(=O)CNCC1CCCN1 (stereo not drawn) [Compound 34] | 348.4 | 0.295 | 58.0 |
| CCCCCCCCCCN(CC(N)=O)C(=O)CN(CCCCCCCCCC)C(=O)CN(CCCCCCCCCC)C(=O)CN(CCCCCCCCCC)C(=O)CN(CCc1ccccc1)C(=O)CN(CCc1ccccc1)C(=O)CN(CC1CCCN1)C(=O)CN(CCc1ccccc1)C(=O)CN(CCc1ccccc1)C(=O)CN(CC1CCCN1)C(=O)CN(CCc1ccccc1)C(=O)CN(CCc1ccccc1)C(=O)CN(CC1CCCN1)C(=O)CN(CCc1ccccc1)C(=O)CN(CCc1ccccc1)C(=O)CNCC1CCCN1 (stereo not drawn) [Compound 35] | 359.8 | 0.486 | 38.0 |
